Measurements taken from patent US5972982A (priority 1997, dated 1999).

Assays:
[1] = system: Mycobacterium tuberculosis strain H37Rv
[2] = system: Poliovirus Type III vaccine strain (ATCC VR 300)
[3] = system: Respiratory Syncytial Virus (RSV, strain Long)

Row | SMILES | colony growth inhibition [1] | colony growth inhibition (Streptococcus pyogenes) | development of viral cytopathic effect (in words) [2] | VIRAL CPE [3] | development of viral cytopathic effect (in words) [3] | VIRAL CPE [2]
1 | CCCCCCCCCCCCCCCCCCOCC(CO)n1cncn1 (stereo not shown) [CPR 1004, 1-O-octadecyl-2-(1-triazolyl)-2-deoxy-glycerol] | inhibits the colony growth relative to control | inhibited the colony growth relative to the controls | inhibited the development of viral cytopathic effect |  |  | 
2 | CCCCCCCCCCCCCCCCCCOCC(CO)n1ccnc1 (stereo not shown) [CPR 1005, 1-O-octadecyl-2-(1-imidazolyl)-2-deoxy-glycerol] | inhibits the colony growth relative to control | inhibited the colony growth relative to the controls | inhibited the development of viral cytopathic effect | 2+ (key: ±: None of the cells rounded; 1+: <25% of cells rounded; 2+: 25 to 50% of the cells rounded; 3+: 75% of the cells rounded; 4+: 100% of the cells rounded) | inhibits the development of viral cytopathic effect | 1+ (key: ±: None of the cells rounded; 1+: <25% of cells rounded; 2+: 25 to 50% of the cells rounded; 3+: 75% of the cells rounded; 4+: 100% of the cells rounded)
3 | CCCCCCCCCCCCCCCCOCC(CO)n1ccnc1 (stereo not shown) [CPR 1104, 1-O-hexadecyl-2-(1-imidazolyl)-2-deoxy-glycerol] | inhibits the colony growth relative to control |  |  |  |  | 
